Reference: the supplement of paper PMC4967469
By IC50 is meant the dose at which the fit gives 50% viability; fits outside the tested doses are given as limits. AUC is the area under the same curve over the 256-fold range up to the top dose, as a fraction; it is 1 without any effect and falls as sensitivity rises. For some assays here: The top dose, if marked as inferred, was calculated from the reported fits.

Key:
Experiment in all cases: Viability of human cancer cell lines after 72 h of drug (GDSC screen)
SN-38 = compound: CCc1c2c(nc3ccc(O)cc13)-c1cc3c(c(=O)n1C2)COC(=O)[C@]3(O)CC [SN-38]; conditions: top dose 0.05 µM; top dose inferred
Experimental: (§1)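 Human cancer cell lines in 384-well plates, medium with 10% serum, drug for 72 h over a 256-fold dose range (nine 2-fold or five 4-fold steps up to the top dose). Adherent lines were fixed and stained with the nucleic acid dye Syto60, suspension lines read with resazurin; signal relative to control wells, capped at 0 and 100%. One two-parameter sigmoid per drug and line, fitted in a mixed model over all curves with the slope shared within a line.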

Methotrexate = compound: CN(Cc1cnc2nc(N)nc(N)c2n1)c1ccc(C(=O)N[C@@H](CCC(=O)O)C(=O)O)cc1 [Methotrexate]; conditions: top dose 0.2 µM
Experimental: as §1

Dabrafenib = compound: CC(C)(C)c1nc(-c2cccc(NS(=O)(=O)c3c(F)cccc3F)c2F)c(-c2ccnc(N)n2)s1 [Dabrafenib]; conditions: top dose 10 µM
Experimental: as §1

## 8505C (thyroid, adherent)
SN-38
  AUC: 0.707
  IC50: 0.0125 µM
Methotrexate
  AUC: 0.984
  IC50: > 0.2 µM

## A375 (melanoma, adherent)
Methotrexate
  AUC: 0.991
  IC50: > 0.2 µM

## A498 (kidney, adherent)
Dabrafenib
  AUC: 0.958
  IC50: > 10 µM
SN-38
  AUC: 0.706
  IC50: 0.0161 µM
Methotrexate
  AUC: 0.96
  IC50: > 0.2 µM

## ACHN (kidney, adherent)
Dabrafenib
  AUC: 0.674
  IC50: 2.05 µM
SN-38
  AUC: 0.544
  IC50: 0.00419 µM
Methotrexate
  AUC: 0.81
  IC50: 0.124 µM

## AsPC-1 (pancreas, adherent)
Dabrafenib
  AUC: 0.719
  IC50: 4.14 µM
SN-38
  AUC: 0.908
  IC50: > 0.05 µM
Methotrexate
  AUC: 0.846
  IC50: > 0.2 µM

## BxPC-3 (pancreas, adherent)
Dabrafenib
  AUC: 0.941
  IC50: > 10 µM
SN-38
  AUC: 0.748
  IC50: 0.0179 µM
Methotrexate
  AUC: 0.964
  IC50: > 0.2 µM

## CAKI-1 (kidney, adherent)
Dabrafenib
  AUC: 0.861
  IC50: > 10 µM
SN-38
  AUC: 0.615
  IC50: 0.00756 µM
Methotrexate
  AUC: 0.883
  IC50: > 0.2 µM

## CAL-27 (head and neck, adherent)
Dabrafenib
  AUC: 0.922
  IC50: > 10 µM
SN-38
  AUC: 0.482
  IC50: 0.00279 µM
Methotrexate
  AUC: 0.94
  IC50: > 0.2 µM

## CAPAN-1 (pancreas, adherent)
SN-38
  AUC: 0.788
  IC50: 0.0246 µM
Methotrexate
  AUC: 0.987
  IC50: > 0.2 µM

## HCC2998 (large intestine, adherent)
SN-38
  AUC: 0.587
  IC50: 0.00536 µM
Methotrexate
  AUC: 0.84
  IC50: 0.132 µM

## M14 (melanoma, adherent)
SN-38
  AUC: 0.7
  IC50: 0.0118 µM
Methotrexate
  AUC: 0.953
  IC50: > 0.2 µM

## MCF7 (breast, adherent)
Dabrafenib
  AUC: 0.925
  IC50: > 10 µM
SN-38
  AUC: 0.427
  IC50: 0.00195 µM

## MDA-MB-157 (breast, adherent)
Dabrafenib
  AUC: 0.978
  IC50: > 10 µM
SN-38
  AUC: 0.701
  IC50: 0.0117 µM

## MDA-MB-231 (breast, adherent)
Dabrafenib
  AUC: 0.933
  IC50: > 10 µM
SN-38
  AUC: 0.618
  IC50: 0.00672 µM

## MDA-MB-468 (breast, adherent)
Dabrafenib
  AUC: 0.977
  IC50: > 10 µM
SN-38
  AUC: 0.478
  IC50: 0.00273 µM

## ME-180 (cervix, adherent)
Dabrafenib
  AUC: 0.945
  IC50: > 10 µM
SN-38
  AUC: 0.421
  IC50: 0.00188 µM

## MFE-319 (endometrium, adherent)
Dabrafenib
  AUC: 0.984
  IC50: > 10 µM
SN-38
  AUC: 0.903
  IC50: > 0.05 µM

## MIA-PaCa-2 (pancreas, adherent)
SN-38
  AUC: 0.422
  IC50: 0.00187 µM
Methotrexate
  AUC: 0.96
  IC50: > 0.2 µM

## MKN1 (stomach, adherent)
Dabrafenib
  AUC: 0.966
  IC50: > 10 µM
SN-38
  AUC: 0.819
  IC50: 0.0303 µM

## ML-1 (thyroid, adherent)
Dabrafenib
  AUC: 0.917
  IC50: > 10 µM
SN-38
  AUC: 0.726
  IC50: 0.0156 µM

## ML-2 (acute myeloid leukaemia, suspension)
Dabrafenib
  AUC: 0.975
  IC50: > 10 µM
SN-38
  AUC: 0.513
  IC50: 0.00338 µM

## MOLM-13 (acute myeloid leukaemia, suspension)
Dabrafenib
  AUC: 0.714
  IC50: 2.4 µM
SN-38
  AUC: 0.481
  IC50: 0.00278 µM

## MOLT-4 (lymphoblastic leukaemia, suspension)
Dabrafenib
  AUC: 0.855
  IC50: 5.73 µM
SN-38
  AUC: 0.288
  IC50: 0.000902 µM

## MV-4-11 (leukaemia, suspension)
Dabrafenib
  AUC: 0.8
  IC50: 3.88 µM
SN-38
  AUC: 0.379
  IC50: 0.00155 µM

## MZ7-mel (melanoma, adherent)
Dabrafenib
  AUC: 0.234
  IC50: 0.102 µM
SN-38
  AUC: 0.701
  IC50: 0.0118 µM

## NB7 (neuroblastoma, adherent)
Dabrafenib
  AUC: 0.984
  IC50: > 10 µM
SN-38
  AUC: 0.985
  IC50: > 0.05 µM

## NCI-H23 (lung adenocarcinoma, adherent)
Dabrafenib
  AUC: 0.951
  IC50: > 10 µM
SN-38
  AUC: 0.795
  IC50: 0.0229 µM

## NCI-H196 (small cell lung carcinoma, adherent)
Dabrafenib
  AUC: 0.932
  IC50: > 10 µM
SN-38
  AUC: 0.947
  IC50: > 0.05 µM

## NCI-H522 (lung adenocarcinoma, adherent)
Dabrafenib
  AUC: 0.955
  IC50: > 10 µM
SN-38
  AUC: 0.883
  IC50: > 0.05 µM

## NCI-H1299 (large cell lung carcinoma, adherent)
Dabrafenib
  AUC: 0.823
  IC50: 7.74 µM
SN-38
  AUC: 0.79
  IC50: 0.0281 µM

## NCI-H1355 (lung adenocarcinoma, adherent)
Dabrafenib
  AUC: 0.957
  IC50: > 10 µM
SN-38
  AUC: 0.897
  IC50: > 0.05 µM

## NCI-H1573 (lung adenocarcinoma, adherent)
Dabrafenib
  AUC: 0.935
  IC50: > 10 µM
SN-38
  AUC: 0.99
  IC50: > 0.05 µM

## NCI-H1793 (lung adenocarcinoma, adherent)
Dabrafenib
  AUC: 0.978
  IC50: > 10 µM
SN-38
  AUC: 0.915
  IC50: > 0.05 µM

## NCI-H1915 (large cell lung carcinoma, adherent)
Dabrafenib
  AUC: 0.832
  IC50: 6.58 µM
SN-38
  AUC: 0.775
  IC50: 0.0202 µM
